Hit rate of the full screen: of about 48,000 compounds, about 1,200 (2.5%) were called active. About 2% were inconclusive and are not listed.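 The calls were made as follows: active = activation of at least 60% and not above a set upper limit (about 1 call in 100 departs from these limits); inconclusive = activation of 40% to 60%, or above that upper limit; inactive = activation under 40%.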 Some of the results follow.
Target: Probable G-protein coupled receptor 32 (Homo sapiens) (UniProt O75388)
Assay: qHTS for Agonists of Human Resolvin D1 Receptor DRV1; also: 0% is about no effect
Conditions: CHO-K1 GPR32 beta-arrestin PathHunter luminescence, 90 min; at 76.9 µM; stronger effect = higher value; zero percent set by DMSO-only wells
Summary of the method: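 Engineered CHO-K1 line co-expressing GPR32-ProLink and EA-beta-arrestin. Compound treatment lasted 90 min at 37 °C. Luminescence was recorded after 1 h with substrate at ambient temperature, relative to DMSO basal wells.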

UniProt O75388, sequence (O75388 whole entry, looked up): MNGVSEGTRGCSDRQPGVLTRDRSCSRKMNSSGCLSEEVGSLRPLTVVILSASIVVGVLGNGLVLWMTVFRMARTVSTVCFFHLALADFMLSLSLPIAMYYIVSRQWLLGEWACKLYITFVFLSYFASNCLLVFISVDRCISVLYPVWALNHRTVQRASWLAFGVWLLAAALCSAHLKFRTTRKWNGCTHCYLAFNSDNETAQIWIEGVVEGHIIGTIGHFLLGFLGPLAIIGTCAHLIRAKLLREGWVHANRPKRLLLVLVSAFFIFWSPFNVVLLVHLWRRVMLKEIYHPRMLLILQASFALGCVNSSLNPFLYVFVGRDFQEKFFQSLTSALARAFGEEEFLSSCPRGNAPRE

activation, inactive:
CCOc1ccccc1NC(=O)N1CCc2cc(S(=O)(=O)N3CCC(C)CC3)ccc21 -16.4%
COc1ccc(-c2oc3ncn4nc(COc5c(C)cccc5C)nc4c3c2-c2ccc(OC)cc2)cc1 -12.4%
Cc1nn(C(=O)c2ccccc2F)c(C)c1S(=O)(=O)N1CCCCCC1 5.01%
CCCCCSc1nc2sc3c(c2c(=O)n1-c1ccccc1)CCN(C(C)=O)C3 19.8%
Cc1ccc(Cn2c(SCc3ccc(C(=O)N4CCCCCC4)cc3)nc3ccncc32)cc1 -5.91%
Cc1cccc(NC(=O)c2sc(-n3nc(C)c(Cc4ccc5c(c4)OCO5)c3C)nc2C)c1C -13.9%
COc1ccc(-c2noc(Cn3c(=O)c4ccccc4n(CC(=O)Nc4cccc(OC)c4)c3=O)n2)cc1 -8.21%
COc1ccc(CN2CCc3nc(SCC(=O)Nc4cc(C)cc(C)c4)[nH]c(=O)c3C2)cc1 22.7%
COc1cc(OC)cc(N2C(=O)N(CC(=O)c3ccc(F)cc3)c3ccccc3S2(=O)=O)c1 -9.39%
COc1cccc(NC(=O)N2CCN3CCCCC3C2)c1 (stereo not given) -6.69%
CCCOC(=O)CSc1ncnc2sc3c(c12)CCC(C)C3 (stereo not given) -4.39%
COc1ccc(-c2cc(C)no2)cc1S(=O)(=O)NC(C)C -12.6%
Cc1ccc(NC(=O)CSc2ncc3c(n2)-c2ccc(Cl)cc2N(C)S3(=O)=O)cc1F 8.17%
Nc1nc(Cl)nc2c1ncn2[C@@H]1O[C@H](CO)[C@@H](O)[C@@H]1F 4.65%
COc1ccc(-c2noc(CSc3nnc(C)n3-c3ccc(OC)cc3)n2)cc1 3.99%
Cn1nnnc1SCCCNCc1ccccc1OCc1ccccc1Cl 25.4%
COc1ccccc1NC(=O)c1sc2nc(N3CCOCC3)c3c(c2c1N)CC(C)(C)OC3 -7.15%
CC(C)c1ccc(NC(=O)c2ccc(F)c(S(=O)(=O)N3CCCCCC3)c2)cc1 3.29%
COc1ccc(S(=O)(=O)NCCc2csc3nc(-c4ccc(OC)c(OC)c4)nn23)cc1C -15%
CCc1ccccc1NC(=O)C1CCN(S(=O)(=O)c2ccc3[nH]c(=O)ccc3c2)CC1 2.81%
CCCCn1c(=O)c2oc3ccccc3c2n(CC(=O)Nc2cccc(Cl)c2C)c1=O -6.77%
CC(C)(C)c1ccc(C(=O)Nc2cc(-c3nc4ccccc4o3)ccc2Cl)cc1 17.1%
CCc1ccccc1NC(=O)c1ccc2c(c1)CCN2S(C)(=O)=O -24.7%
COc1cc(NC(=O)c2sc3nc4n(c(=O)c3c2C)CCCCC4)cc(OC)c1OC 2.5%
Cc1noc(C)c1S(=O)(=O)N1CCC(C(=O)Nc2ccc(Br)cc2)CC1 5.29%
COc1ccc(CNC(=O)c2nc(Cn3nc(C)c(Br)c3C)no2)cc1OC 42.5%
CCN(C(=O)c1cc2cc3ccc(OC)cc3nc2o1)c1cccc(C)c1 42.3%
COc1ccc(CCNC(=O)C(=O)Nc2ccc(C)cc2)cc1OC 0.549%
COc1ccc(N2CCN(S(=O)(=O)c3c(C)[nH]c(=O)[nH]c3=O)CC2)cc1 3.15%
Cc1ccc(C)c(NC(=O)CSc2nc(-c3ccccc3)cc(=O)[nH]2)c1 -4.82%
COc1ccc(-c2nc(C(=O)Nc3ccc(C(C)=O)cc3)nn2-c2cccc(Cl)c2)cc1 -0.388%
CC(=O)c1ccc(Oc2nc(C)nc3c2oc2ccccc23)cc1 4.08%
Oc1c(C(c2ccc(F)cc2)N2CCOCC2)sc2nc(-c3ccco3)nn12 (stereo not given) 47.3%
O=C(Cn1ncc2c([nH]c3ccccc32)c1=O)Nc1cccc(C(F)(F)F)c1 -1.57%
CC(=O)N1CCc2cc(S(=O)(=O)NC(Cc3ccccc3)C(=O)Nc3cccc(C)c3)ccc21 (stereo not given) -6.89%
Cc1cc(C)cc(N2CC(c3nc(-c4cccc(Cl)c4)no3)CC2=O)c1 (stereo not given) -19.1%
Cc1ccc(CNCc2ccccc2)s1 -3.76%
CCc1ccc(-n2c(=O)c3c4c(sc3n(Cc3ccc(C)cc3)c2=O)CCC4)cc1 -11.4%
O=C1C(Nc2ccccc2)=CC(c2ccc(Br)cc2)N1c1ccccc1 (stereo not given) -24.3%
Cc1ccccc1CN1c2ccccc2S(=O)(=O)c2ccccc21 11.4%
COc1ccc(N2CCN(C(CNC(=O)C(=O)NCCc3ccccc3)c3cccnc3)CC2)cc1 (stereo not given) -3.7%
O=C(NCc1ccccc1)c1ccc2nc(CCc3ccccc3)oc2c1 18.7%
Cc1ccc(CCNC(=O)NCc2noc3ccccc23)cc1 -13.2%
Cc1ccc(CN2CCC(CNC(=O)Nc3cccc(Cl)c3C)C2)cc1 (stereo not given) 0%
COc1ccc(C)cc1NC(=O)NCc1cccn1Cc1ccccc1 -16%
COc1ccccc1NC(=O)CN(C)S(=O)(=O)c1ccc2c(c1)c(=O)n(C)c(=O)n2C -0.627%
CCOCCCN(C(=O)Nc1ccc(Cl)cc1)C1CCN(C(C)=O)CC1 -9.89%
Cc1c(CNC2CCCCCC2)c(C(=O)O)c(C)n1Cc1ccc(F)cc1Cl -7.64%
O=C(COc1ccc(Cl)cc1)Nc1nnc2n1CCS2 14%
COc1ccc(C)cc1NC(=O)CSc1nc2ccccc2nc1N1CCOCC1 -26.7%
CC1CCCN(S(=O)(=O)c2ccc3[nH]c(=O)cc(C(=O)NCCc4ccc(Cl)cc4)c3c2)C1 (stereo not given) -15.6%
COc1cc(OC)cc(-c2nc(-c3cccc(C)c3)no2)c1 8.19%
Cc1ccc(-n2c3c(c(=O)[nH]c2=O)C(NC(=O)c2ccccc2C)(C(F)(F)F)C(=O)N3)cc1 (stereo not given) 1.86%
Cc1cc2ccccc2n1-c1ccc(C(=O)N2CCC(C(=O)NCc3ccccc3Cl)CC2)s1 -13.4%
COc1ccccc1N1CCN(C(=O)CSc2n[nH]c(-c3ccccc3)n2)CC1 -2.28%
